Publication PMC4738305, “Metabolism and Disposition of Aditoprim in Swine, Broilers, Carp and Rats” (Scientific Reports, 2016)
The source gives many values for each of these; only a part stands here.

Experiment: Tissue distribution and elimination of total radioactivity (total residues) after oral ^3H-ADP for 7 d
Assay type: in vivo
Settings: broilers
Experimental: (0.1 Ci/g) through oral gavage for 7 consecutive days. All the animals were housed on the basis of their group in the cages or aquaria throughout the whole study period. A group of animals was slaughtered through exsanguination under diethyl ether inhalation of anesthesia in the period of 6 h, 1, 3, 7, 14, and 21 d after the administration. The blood samples were immediately collected into the heparinized tubes and was centrifuged at 1920 × g at 4 °C for 10 min to obtain the plasma. The tissues from the heart, liver, spleen, lung, kidney, craw (broilers), stomach, intestine, fat, skin, muscle, thymus, pancreas, bile, bladder, hair (scale for carp), genital gland, adrenal glands, swim bladder (carp), brain, lymph, and bursa (broilers) were carefully excised and collected. The tissues were thoroughly rinsed with the deionized water to remove the residuary blood, blotted to dryness, and finally to perform the homogenization. In order to avoid cross-contamination the dissecting instruments were washed during the tissue procurements. The blank tissues were collected in order to provide control matrices. The total radioactivity levels in each sample were determined through LSC. The samples extracted from the plasma, bile, and tissues of the liver, kidney, muscle, and fat/skin were analyzed through LC/MS-IT-TOF and v. ARC radiometric detection for metabolite profiling.
Measurements of the total radioactivity in each sample were conducted by Packard Tri-Carb 2900 TR liquid scintillation counter (PerkinElmer Life and Analytical Sciences). The detection time was 10 min for two cycles. The scintillation counter data were automatically corrected for counting efficiency by instrument-stored quench curve which was drawn with a series of sealed quenched […] standards. The actual radioactivity of each sample was calculated by subtracting the background value form the mean radioactivity in two blank samples. All the samples were analyzed in duplicate if the sample size allowed this. If the results were differed by more than 10% from the mean value, the samples were reanalyzed. The samples with LSC counts less than 2-fold of the level of the running background were considered to contain insufficient radioactivity for reliable quantification.
Aliquots of liquid samples (urine, plasma, bile and raised water, 200 μL) were mixed with 10 mL of Ultima Gold^TM scintillation fluid for the direct analysis by LSC. Aliquots of solid samples (feces and tissues, 200 mg) were digested overnight with 2 mL tissue solubilizer at 50 °C in a shaking water bath, followed by adding 200 μL of 0.1 mol/L EDTA-Na and 200 μL of 30% H2O2, and was bathed at 50 °C for 2 h to bleach. The obtained transparent liquid were mixed with 10 mL of scintillation fluid and finally were counted by LSC. The digestion efficiency was determined by using the blank samples spiked with ^3 H standard for digestion, and the measured radioactivity content in the digested samples were adjusted by using the digestion efficiency values.
The concentrations of ADP and/or its metabolites were analyzed by using the following equation: C = L/(2.22 × 10^9 × RM), where C is the concentration of ADP or/and its metabolites (mg/kg), L is the LSC count (dpm), R is the specific activity of the administered dose (0.1 Ci/g), and M is the weight or volume of samples (kg or L). The results are expressed as mean ± SD. The elimination kinetics of terminal phase for ADP and its metabolites were conducted by using the WinNonlin linear regression program (Pharsight corporation, Statistical consultants, Inc., Kentucky, USA).

For `[3H]c1c(Cc2cnc(N)nc2N)cc(OC)c(N(C)C)c1OC` [^3H-ADP], the “Concentrations of total residues” value (Bile, time 0.25, 5 mg/kg b.w. 7 days) was 25.15 ± 8.55 mg/kg, the “Concentrations of total residues” value (Bile, time 1, 5 mg/kg b.w. 7 days) was 11.46 ± 1.16 mg/kg and the “Concentrations of total residues” value (Bile, time 3, 5 mg/kg b.w. 7 days) was 3.96 ± 1.06 mg/kg. For the same molecule, the “Concentrations of total residues” value (Bile, time 7, 5 mg/kg b.w. 7 days) was 0.25 ± 0.08 mg/kg, the “Concentrations of total residues” value (Blood, time 0.25, 5 mg/kg b.w. 7 days) was 0.77 ± 0.16 mg/kg and the “Concentrations of total residues” value (Blood, time 1, 5 mg/kg b.w. 7 days) was 0.42 ± 0.06 mg/kg. For the same molecule, the “Concentrations of total residues” value (Blood, time 3, 5 mg/kg b.w. 7 days) was 0.16 ± 0.03 mg/kg, the “Concentrations of total residues” value (Blood, time 7, 5 mg/kg b.w. 7 days) was 0.06 ± 0.01 mg/kg and the “Concentrations of total residues” value (Brain, time 0.25, 5 mg/kg b.w. 7 days) was 2.07 ± 0.54 mg/kg. For the same molecule, the “Concentrations of total residues” value (Brain, time 1, 5 mg/kg b.w. 7 days) was 1.02 ± 0.28 mg/kg, the “Concentrations of total residues” value (Brain, time 3, 5 mg/kg b.w. 7 days) was 0.44 ± 0.05 mg/kg and the “Concentrations of total residues” value (Brain, time 7, 5 mg/kg b.w. 7 days) was 0.06 ± 0.01 mg/kg. For the same molecule, the “Concentrations of total residues” value (Bursa of Fabricius, time 0.25, 5 mg/kg b.w. 7 days) was 9.62 ± 1.43 mg/kg, the “Concentrations of total residues” value (Bursa of Fabricius, time 1, 5 mg/kg b.w. 7 days) was 4.20 ± 0.86 mg/kg and the “Concentrations of total residues” value (Bursa of Fabricius, time 3, 5 mg/kg b.w. 7 days) was 0.51 ± 0.09 mg/kg. The “Concentrations of total residues” value (Bursa of Fabricius, time 7, 5 mg/kg b.w. 7 days) was 0.10 ± 0.01 mg/kg, the “Concentrations of total residues” value (Bursa of Fabricius, time 14, 5 mg/kg b.w. 7 days) was 0.01 ± 0.00 mg/kg and the “Concentrations of total residues” value (Heart, time 0.25, 5 mg/kg b.w. 7 days) was 2.27 ± 0.52 mg/kg. For the same molecule, the “Concentrations of total residues” value (Heart, time 1, 5 mg/kg b.w. 7 days) was 0.81 ± 0.25 mg/kg, the “Concentrations of total residues” value (Heart, time 3, 5 mg/kg b.w. 7 days) was 0.23 ± 0.03 mg/kg and the “Concentrations of total residues” value (Heart, time 7, 5 mg/kg b.w. 7 days) was 0.08 ± 0.00 mg/kg. For the same molecule, the “Concentrations of total residues” value (Heart, time 14, 5 mg/kg b.w. 7 days) was 0.01 ± 0.00 mg/kg, the “Concentrations of total residues” value (Kidney, time 0.25, 5 mg/kg b.w. 7 days) was 23.54 ± 3.83 mg/kg and the “Concentrations of total residues” value (Kidney, time 1, 5 mg/kg b.w. 7 days) was 11.04 ± 2.65 mg/kg. The “Concentrations of total residues” value (Kidney, time 3, 5 mg/kg b.w. 7 days) was 1.70 ± 0.28 mg/kg, the “Concentrations of total residues” value (Kidney, time 7, 5 mg/kg b.w. 7 days) was 0.21 ± 0.00 mg/kg and the “Concentrations of total residues” value (Kidney, time 14, 5 mg/kg b.w. 7 days) was 0.06 ± 0.00 mg/kg. For the same molecule, the “Concentrations of total residues” value (Liver, time 0.25, 5 mg/kg b.w. 7 days) was 13.31 ± 1.98 mg/kg, the “Concentrations of total residues” value (Liver, time 1, 5 mg/kg b.w. 7 days) was 3.05 ± 0.66 mg/kg and the “Concentrations of total residues” value (Liver, time 3, 5 mg/kg b.w. 7 days) was 1.55 ± 0.21 mg/kg. The “Concentrations of total residues” value (Liver, time 7, 5 mg/kg b.w. 7 days) was 0.63 ± 0.03 mg/kg, the “Concentrations of total residues” value (Liver, time 14, 5 mg/kg b.w. 7 days) was 0.16 ± 0.02 mg/kg and the “Concentrations of total residues” value (Lung, time 0.25, 5 mg/kg b.w. 7 days) was 11.41 ± 1.91 mg/kg. For the same molecule, the “Concentrations of total residues” value (Lung, time 1, 5 mg/kg b.w. 7 days) was 3.27 ± 0.25 mg/kg, the “Concentrations of total residues” value (Lung, time 3, 5 mg/kg b.w. 7 days) was 0.59 ± 0.05 mg/kg and the “Concentrations of total residues” value (Lung, time 7, 5 mg/kg b.w. 7 days) was 0.08 ± 0.00 mg/kg. The “Concentrations of total residues” value (Maw, time 0.25, 5 mg/kg b.w. 7 days) was 7.77 ± 1.06 mg/kg, the “Concentrations of total residues” value (Maw, time 1, 5 mg/kg b.w. 7 days) was 1.46 ± 0.64 mg/kg and the “Concentrations of total residues” value (Maw, time 3, 5 mg/kg b.w. 7 days) was 0.25 ± 0.03 mg/kg. For the same molecule, the “Concentrations of total residues” value (Maw, time 7, 5 mg/kg b.w. 7 days) was 0.05 ± 0.01 mg/kg, the “Concentrations of total residues” value (Muscle, time 3, 5 mg/kg b.w. 7 days) was 0.14 ± 0.02 mg/kg and the “Concentrations of total residues” value (Muscle, time 7, 5 mg/kg b.w. 7 days) was 0.06 ± 0.01 mg/kg. The “Concentrations of total residues” value (Pancreas, time 0.25, 5 mg/kg b.w. 7 days) was 11.41 ± 3.46 mg/kg, the “Concentrations of total residues” value (Pancreas, time 1, 5 mg/kg b.w. 7 days) was 2.55 ± 0.56 mg/kg and the “Concentrations of total residues” value (Pancreas, time 3, 5 mg/kg b.w. 7 days) was 0.49 ± 0.04 mg/kg. The “Concentrations of total residues” value (Pancreas, time 7, 5 mg/kg b.w. 7 days) was 0.07 ± 0.01 mg/kg, the “Concentrations of total residues” value (Spleen, time 0.25, 5 mg/kg b.w. 7 days) was 14.03 ± 3.12 mg/kg and the “Concentrations of total residues” value (Spleen, time 1, 5 mg/kg b.w. 7 days) was 3.08 ± 0.51 mg/kg. The “Concentrations of total residues” value (Spleen, time 3, 5 mg/kg b.w. 7 days) was 0.62 ± 0.02 mg/kg, the “Concentrations of total residues” value (Spleen, time 7, 5 mg/kg b.w. 7 days) was 0.10 ± 0.01 mg/kg and the “Concentrations of total residues” value (Spleen, time 14, 5 mg/kg b.w. 7 days) was 0.03 ± 0.02 mg/kg.
